{"source": "paper PMC4336329", "about": "(PLoS ONE, 2015)", "note": "The whole screen tested about 310,000 compounds, of which about 14,000 (4.5%) showed an effect of 50% or more. Effects have a minus sign here. This is one part of the list.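 Note: peak tail current of the secondary pulse compared with the same well before compound.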"}
{"target": "human ether-à-go-go-related gene (hERG) potassium channel (human, UniProt Q12809)", "sequence (Q12809 whole entry, looked up)": "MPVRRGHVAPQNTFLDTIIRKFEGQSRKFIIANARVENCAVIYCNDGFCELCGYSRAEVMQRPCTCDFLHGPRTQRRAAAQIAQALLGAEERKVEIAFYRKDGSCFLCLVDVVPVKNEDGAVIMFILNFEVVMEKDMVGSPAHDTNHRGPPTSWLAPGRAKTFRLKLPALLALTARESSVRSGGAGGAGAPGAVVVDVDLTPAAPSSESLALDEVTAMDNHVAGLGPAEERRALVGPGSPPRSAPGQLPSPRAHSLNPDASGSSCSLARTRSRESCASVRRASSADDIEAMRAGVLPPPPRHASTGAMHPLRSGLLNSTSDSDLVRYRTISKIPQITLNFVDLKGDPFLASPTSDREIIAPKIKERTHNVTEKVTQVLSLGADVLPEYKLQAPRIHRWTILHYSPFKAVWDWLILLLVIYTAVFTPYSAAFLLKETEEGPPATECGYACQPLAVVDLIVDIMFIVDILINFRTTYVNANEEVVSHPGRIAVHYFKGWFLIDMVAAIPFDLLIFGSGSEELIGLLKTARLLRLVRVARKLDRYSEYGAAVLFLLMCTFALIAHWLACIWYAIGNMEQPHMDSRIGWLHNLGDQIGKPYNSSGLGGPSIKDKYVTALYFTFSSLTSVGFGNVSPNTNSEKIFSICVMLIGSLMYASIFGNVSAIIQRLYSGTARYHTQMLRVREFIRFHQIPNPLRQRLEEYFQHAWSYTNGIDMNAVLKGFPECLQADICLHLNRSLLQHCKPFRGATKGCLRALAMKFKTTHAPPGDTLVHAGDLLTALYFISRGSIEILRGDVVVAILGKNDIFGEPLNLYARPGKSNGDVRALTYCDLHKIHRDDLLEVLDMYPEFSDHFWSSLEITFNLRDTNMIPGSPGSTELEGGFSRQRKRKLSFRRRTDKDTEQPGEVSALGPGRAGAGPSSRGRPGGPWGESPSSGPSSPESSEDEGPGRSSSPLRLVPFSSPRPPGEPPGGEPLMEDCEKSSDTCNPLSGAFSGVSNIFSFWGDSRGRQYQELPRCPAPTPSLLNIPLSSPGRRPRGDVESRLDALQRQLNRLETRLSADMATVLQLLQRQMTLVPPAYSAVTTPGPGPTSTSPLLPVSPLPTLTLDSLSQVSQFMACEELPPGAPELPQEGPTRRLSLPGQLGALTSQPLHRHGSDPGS", "assay": "primary screen, population patch clamp on CHO cells stably expressing hERG", "units": {"hERG current change (%, negative = inhibition) at 10uM": "%"}}
{"smiles": "COc1cc(C(O)P(=O)(OC2CCCCC2)c2ccc(N(C)C)cc2)cc(OC)c1OC", "note": "(centres unmarked)", "hERG current change (%, negative = inhibition) at 10uM": -3.85}
{"smiles": "O=C(CCCn1c(=O)[nH]c2cc(Cl)ccc2c1=O)NCCCN1CCCC1=O", "hERG current change (%, negative = inhibition) at 10uM": 0.943}
{"smiles": "O=C(OCc1cc2ccccc2[nH]c1=O)c1ccccc1", "hERG current change (%, negative = inhibition) at 10uM": 6.79}
{"smiles": "CCOc1ccc(CCNC(=O)COC(=O)c2ccco2)cc1OCC", "hERG current change (%, negative = inhibition) at 10uM": 2.54}
{"smiles": "O=C(CNC(=O)c1cccs1)OCC(=O)c1cccs1", "hERG current change (%, negative = inhibition) at 10uM": 1.19}
{"smiles": "CN(Cc1ccccc1)C(=O)Cn1c(=O)oc2cc(S(=O)(=O)NCc3ccccc3)ccc21", "hERG current change (%, negative = inhibition) at 10uM": -4.36}
{"smiles": "CCn1c(=O)cc(OCC(=O)N2CCC3(CC2)OCCO3)c2ccccc21", "hERG current change (%, negative = inhibition) at 10uM": 7.83}
{"smiles": "Cc1cc(C)n(CC(O)COc2ccc(C(C)C)c(C)c2)n1", "note": "(centres unmarked)", "hERG current change (%, negative = inhibition) at 10uM": 11.7}
{"smiles": "CC1Cc2ccccc2N1C(=O)CSc1nnc(-c2ccc(S(=O)(=O)N3CCCC3)cc2)o1", "note": "(centres unmarked)", "hERG current change (%, negative = inhibition) at 10uM": -0.906}
{"smiles": "CC(C)c1ccc(OCC(=O)Nc2ccc(OC(F)(F)F)cc2)cc1", "hERG current change (%, negative = inhibition) at 10uM": 4.88}
{"smiles": "Cc1ccc(OCCCc2c(C)n[nH]c2C)cc1", "hERG current change (%, negative = inhibition) at 10uM": 10.8}
{"smiles": "COc1cccc2cc(-c3cc(=O)oc4ccc(OCC(C)=O)cc34)oc12", "hERG current change (%, negative = inhibition) at 10uM": 9.86}
{"smiles": "CC(=O)c1c(C)[nH]c(C(=O)N2CCc3ccccc3C2)c1C", "hERG current change (%, negative = inhibition) at 10uM": -6.42}
{"smiles": "COc1ccc(OC)c(/C=C/C(=O)OCC(=O)c2c(N)n(C)c(=O)n(C)c2=O)c1", "hERG current change (%, negative = inhibition) at 10uM": 12.4}
{"smiles": "COc1ccc2c(c1OC)C(=O)N1N=C(c3ccc(Br)cc3)CC21", "note": "(centres unmarked)", "hERG current change (%, negative = inhibition) at 10uM": -15.8}
{"smiles": "Cc1ccc(NC(=O)Cn2nnc(C(=O)NCc3cccs3)c2N)cc1", "hERG current change (%, negative = inhibition) at 10uM": 2.1}
{"smiles": "Cc1c(CNCCc2ccccc2)c(C(=O)O)c(C)n1-c1ccccc1", "hERG current change (%, negative = inhibition) at 10uM": 12.1}
{"smiles": "O=C(c1cc(-c2ccncc2)nc2ccccc12)N1CCN(c2ccc(N3CCOCC3)nn2)CC1", "hERG current change (%, negative = inhibition) at 10uM": -42.4}
{"smiles": "CCN1C(=O)c2n[nH]c(C(=O)OC)c2C1=O", "hERG current change (%, negative = inhibition) at 10uM": 16}
{"smiles": "O=C1c2ccccc2C(=O)N1CCOc1ccccc1", "hERG current change (%, negative = inhibition) at 10uM": -0.552}
{"smiles": "COc1ccc(N(Cc2cc3cc(OC)ccc3[nH]c2=O)C(=O)C2CCCO2)cc1", "note": "(centres unmarked)", "hERG current change (%, negative = inhibition) at 10uM": -14.3}
{"smiles": "CCN(CCCNC(=O)CSc1cc(=O)n(C)c2cc(Cl)ccc12)Cc1ccccc1", "hERG current change (%, negative = inhibition) at 10uM": -58.8}
{"smiles": "CCC(C)Nc1nc(OC)nc(N(C)C#N)n1", "note": "(centres unmarked)", "hERG current change (%, negative = inhibition) at 10uM": 13.3}
{"smiles": "CC1(C)C2CCC1(C)C(OC(=O)C[n+]1ccccc1N)C2.[Br-]", "note": "(centres unmarked)", "hERG current change (%, negative = inhibition) at 10uM": -35.3}
{"smiles": "O=C(NC1CCCCC1)c1cccc(OCc2ccccc2)c1", "hERG current change (%, negative = inhibition) at 10uM": -3.56}
{"smiles": "CCS(=O)(=O)NCCc1cc2c(OC)ccc(OC)c2[nH]c1=O", "hERG current change (%, negative = inhibition) at 10uM": 11.1}
{"smiles": "CC1CC(C)CN(CCCNC(=O)CCNC(=O)Cn2ccc3ccccc3c2=O)C1", "note": "(centres unmarked)", "hERG current change (%, negative = inhibition) at 10uM": -5.54}
{"smiles": "Cc1ccc(C)c(NC(=S)N2CCN(S(C)(=O)=O)CC2)c1", "hERG current change (%, negative = inhibition) at 10uM": 14.3}
{"smiles": "Cc1ccccc1NC(=O)c1c(Cl)nc(C)c(Cl)c1C", "hERG current change (%, negative = inhibition) at 10uM": -8.36}
{"smiles": "Cc1ccc(-n2c(-c3nn(C)c(C)c3Cl)n[nH]c2=S)cc1", "hERG current change (%, negative = inhibition) at 10uM": 16}
{"smiles": "CCOC(=O)c1sc(NC(=S)NC(=O)c2ccco2)nc1C", "hERG current change (%, negative = inhibition) at 10uM": 6.8}
{"smiles": "CN(C)CCN(C(=O)c1ccc2c(c1)CCCC2)c1nc2cc3c(cc2s1)OCCO3.Cl", "hERG current change (%, negative = inhibition) at 10uM": 5.76}
{"smiles": "Cc1ccc(-n2ncc3c2CC(C)(C)CC3NC(=O)CCN2CCCO2)cc1", "note": "(centres unmarked)", "hERG current change (%, negative = inhibition) at 10uM": -37.7}
{"smiles": "CCCCn1c(SCC(=O)NCc2ccco2)nc2c1c(=O)n(C)c(=O)n2C", "hERG current change (%, negative = inhibition) at 10uM": -4.63}
{"smiles": "CC(C)(C)NC(=O)Nc1cccc(Cl)c1Cl", "hERG current change (%, negative = inhibition) at 10uM": 10.6}
{"smiles": "O=C(Nc1ccc(Cl)cc1F)C1CCN(S(=O)(=O)c2cccnc2)CC1", "hERG current change (%, negative = inhibition) at 10uM": -21.5}
{"smiles": "CCOC(=O)c1c(NCCN(C)C)c2ccccc2[nH]c1=O", "hERG current change (%, negative = inhibition) at 10uM": 8.71}
{"smiles": "CCOc1ccc(C2C(C(=O)c3ccco3)=C(O)C(=O)N2Cc2cccnc2)cc1OC", "note": "(centres unmarked)", "hERG current change (%, negative = inhibition) at 10uM": -0.462}
{"smiles": "Cc1onc(-c2ccccc2)c1C(=O)Nc1nc(-c2cc(F)ccc2F)cs1", "hERG current change (%, negative = inhibition) at 10uM": 2.36}
{"smiles": "CCOC(=O)c1[nH]nc(-c2cc(CC)c(O)cc2O)c1-c1cscn1", "hERG current change (%, negative = inhibition) at 10uM": 15}
{"smiles": "Cc1ccc(SCC(=O)Nc2nnc(C(C)(C)C)s2)cc1", "hERG current change (%, negative = inhibition) at 10uM": 22.1}
{"smiles": "N#CC(C#N)=C(C#N)c1ccc(Nc2ccccc2)cc1", "hERG current change (%, negative = inhibition) at 10uM": 6.62}
{"smiles": "CC(=O)c1ccc(S(=O)(=O)N(C)CCCC(=O)N2CCN(c3ncccn3)CC2)cc1", "hERG current change (%, negative = inhibition) at 10uM": -38.4}
{"smiles": "O=C(NC(Cc1c[nH]c2ccccc12)c1nnc2n1CCCCC2)c1ccc(Cl)cc1", "note": "(centres unmarked)", "hERG current change (%, negative = inhibition) at 10uM": -38.8}
{"smiles": "O=C(NCCC1=CCCCC1)C(=O)NCC(c1ccco1)N1CCN(c2ccccc2)CC1", "note": "(centres unmarked)", "hERG current change (%, negative = inhibition) at 10uM": -15.3}
{"smiles": "CCOC(=O)C1=C(C)NC2=C(C(=O)c3ccccc32)C1c1cccnc1", "note": "(centres unmarked)", "hERG current change (%, negative = inhibition) at 10uM": -12.4}
{"smiles": "CCc1ccc(C(=O)CC2(O)C(=O)N(CN3CCOCC3)c3ccccc32)cc1", "note": "(centres unmarked)", "hERG current change (%, negative = inhibition) at 10uM": 7.69}
{"smiles": "CCOC(=O)c1cc(CC)sc1NC(=O)CC1SC(N)=NC1=O", "note": "(centres unmarked)", "hERG current change (%, negative = inhibition) at 10uM": -2.87}
{"smiles": "COc1ccc(C(CNc2ncnc3sccc23)N(C)C)cc1OC", "note": "(centres unmarked)", "hERG current change (%, negative = inhibition) at 10uM": 0.613}
{"smiles": "Cc1ccc(CNC(=O)CCn2cc(-c3ccc(C)cc3)nc2CCN)cc1", "hERG current change (%, negative = inhibition) at 10uM": -26.6}
{"smiles": "Cc1ccc(S(=O)(=O)N2CCC(C(=O)NCCC3=CCCCC3)CC2)cc1C", "hERG current change (%, negative = inhibition) at 10uM": -11.6}
{"smiles": "CC(C)c1nnc(NC(=O)CCC(=O)NCc2ccco2)s1", "hERG current change (%, negative = inhibition) at 10uM": 2.23}
{"smiles": "Cc1ccc(N(C)C(=O)N2CCN(S(=O)(=O)c3ccc(C)c(C)c3)CC2)cc1", "hERG current change (%, negative = inhibition) at 10uM": -13.7}
{"smiles": "Oc1c(C(c2cccs2)N2CCN(c3ccccc3)CC2)sc2ncnn12", "note": "(centres unmarked)", "hERG current change (%, negative = inhibition) at 10uM": -33.6}
{"smiles": "C=CCn1c(SCC(=O)NC23CC4CC(CC(C4)C2)C3)nc(O)cc1=O", "hERG current change (%, negative = inhibition) at 10uM": -9.96}
{"smiles": "CC(C)n1c(O)c(/C=C2\\C=Nc3ccccc32)sc1=Nc1ccccc1", "hERG current change (%, negative = inhibition) at 10uM": 19.6}
